According to PubChem BioAssay AID485360 (National Center for Advancing Translational Sciences (NCATS), 2010):
The whole screen tested about 230,000 compounds, of which about 1,500 (0.65%) were called active. Inconclusive means that the source gave no clear call. Such entries were picked first, then a sample of the others. The call rests on the fitted dose curve; in most records, active means well fitted inhibition curve with a large enough effect; inconclusive means small, poorly fitted or top-dose-only effect; inactive means no such curve, though single readings can be large or run the other way. Where the call is inconclusive, the potency comes from a doubtful curve fit. Peptide text beside a SMILES is read from it. * marks the point of attachment. Boc = CC(C)(C)OC(=O)*; OBn = c1ccc(CO*)cc1

Each compound was assayed against Lethal(3)malignant brain tumor-like protein 1 (Homo sapiens) (UniProt Q9Y468) (assay: qHTS Assay for the Inhibitors of L3MBTL1). Conditions: AlphaScreen L3MBTL1–H3K9me1 peptide binding; activity, negative = inhibition: at 57.1 µM (top of the series).
How it was run: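 AlphaScreen proximity signal between nickel-chelate acceptor and streptavidin donor beads (final 10 ug/mL) reports binding of 50 nM L3MBTL1 to 75 nM biotin-H3 K9me1 peptide; complex incubated with compounds 30 min at room temperature; cefsulodin titration as control.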
Further: nearly all actives have a fitted effect of over 60% in size.
On the % scale 0 is the no-effect control and ±100 the full control effect; potency means the concentration at half of the fitted maximal effect; tags describe the fitted curve by direction and shape.

Sequence of UniProt Q9Y468 (Q9Y468 whole entry, looked up): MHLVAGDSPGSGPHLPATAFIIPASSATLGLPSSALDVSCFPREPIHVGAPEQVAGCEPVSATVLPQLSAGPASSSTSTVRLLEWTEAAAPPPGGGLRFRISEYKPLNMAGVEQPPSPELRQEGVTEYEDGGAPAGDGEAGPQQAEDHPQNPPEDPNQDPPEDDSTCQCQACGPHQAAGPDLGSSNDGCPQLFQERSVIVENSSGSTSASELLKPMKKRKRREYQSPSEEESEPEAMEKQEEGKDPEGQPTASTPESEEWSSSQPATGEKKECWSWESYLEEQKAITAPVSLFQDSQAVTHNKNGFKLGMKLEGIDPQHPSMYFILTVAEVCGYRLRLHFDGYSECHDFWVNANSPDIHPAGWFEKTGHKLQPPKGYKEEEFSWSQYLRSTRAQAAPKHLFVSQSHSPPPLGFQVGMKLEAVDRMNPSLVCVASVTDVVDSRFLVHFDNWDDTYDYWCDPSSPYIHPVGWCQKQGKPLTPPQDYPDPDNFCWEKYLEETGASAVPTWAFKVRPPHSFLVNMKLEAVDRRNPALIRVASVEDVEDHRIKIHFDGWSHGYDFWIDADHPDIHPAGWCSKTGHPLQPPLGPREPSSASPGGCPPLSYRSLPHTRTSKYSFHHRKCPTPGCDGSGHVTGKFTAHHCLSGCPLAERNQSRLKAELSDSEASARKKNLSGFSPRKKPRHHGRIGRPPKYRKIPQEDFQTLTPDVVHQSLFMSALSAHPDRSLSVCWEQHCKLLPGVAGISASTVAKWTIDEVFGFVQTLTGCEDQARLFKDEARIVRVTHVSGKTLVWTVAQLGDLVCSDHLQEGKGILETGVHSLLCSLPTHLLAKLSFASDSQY

Question: How did the “activity, negative = inhibition” value turn out when O=C(CNc1cccc2ccccc12)N/N=C/c1cccc(Oc2ccccc2)c1 was run?
Answer: inactive: -8.46%

Question: How did the Potency turn out when O=C(Nc1ccc(S(=O)(=O)Nc2nccs2)cc1)c1cc(-c2ccccn2)nc2ccccc12 was run?
Answer: inconclusive: 31.6 µM [inhibitor, single point]

Question: With CCS(=O)(=O)N1CCC(C(=O)NCc2cccnc2)CC1 as the compound, how does the “activity, negative = inhibition” value read?
Answer: inactive: -5.52%

Question: Which Potency does the source give for O=C(O)c1cccc(-c2ccc(/C=N/NC(=O)C3COc4ccccc4O3)o2)c1 (stereo unspecified) here?
Answer: inconclusive: 28.2 µM [inhibitor, single point]

Question: How did the “activity, negative = inhibition” value turn out when CN(C)c1ccc(/C=C2\CCC/C(=C\c3ccccc3)C2=O)cc1 was run?
Answer: inactive: -3.62%

Question: For CC(C)OP(=O)(c1ccccc1)c1ccccc1, which Potency is on record?
Answer: inconclusive: 4.47 µM [inhibitor, single point]

Question: Which “activity, negative = inhibition” value does the source give for COc1ccc(N2C(=O)C3C(C2=O)C3(c2ccccc2)c2ccccc2)cc1 (stereo unspecified) here?
Answer: inactive: -6.37%

Question: Which Potency does the source give for CCn1cc(C(=O)N2CCN(c3ccc(OC)cc3)CC2)c(=O)c2cc(S(=O)(=O)N3CCCCC3)ccc21 here?
Answer: inconclusive: 0.141 µM [inhibitor, full curve, poor fit]

Question: How did the Potency turn out when COc1cccc2sc(Nc3nc(-c4ccccn4)cs3)nc12 was run?
Answer: inconclusive: 39.8 µM [inhibitor, single point]

Question: Which Potency does the source give for COC(=O)c1ccccc1NC(=O)C(C)NS(=O)(=O)c1ccc(OC)cc1 (stereo unspecified) here?
Answer: inconclusive: 5.62 µM [inhibitor, single point]

Question: How did the “activity, negative = inhibition” value turn out when CC(C)NS(=O)(=O)c1ccc(NC(=S)NC(=O)c2ccc(-c3ccccc3)cc2)cc1 was run?
Answer: inactive: -1.56%

Question: For COc1cc(-c2cc(C(=O)OCC(=O)Nc3ccc4c(c3)OCO4)c3ccccc3n2)cc(OC)c1OC, which Potency is on record?
Answer: inconclusive: 25.1 µM [inhibitor, single point]

Question: Which “activity, negative = inhibition” value does the source give for O=C1c2ccccc2C(=O)N1CCc1nc2ccccc2c(=O)n1Cc1ccco1 here?
Answer: inactive: 1.35%

Question: Which Potency does the source give for O=C(/C=C/c1cccc(F)c1)N1CCN(c2ncccn2)CC1 here?
Answer: inconclusive: 1 µM [inhibitor, full curve]

Question: With Fc1ccccc1C1c2[nH]c3ccccc3c2CCN1CCCn1cccn1 (stereo unspecified) as the compound, how does the Potency read?
Answer: inconclusive: 0.126 µM [inhibitor, full curve, poor fit]

Question: Which Potency does the source give for CN(C)c1ccc(N=Nc2ccccc2C(=O)OCC(=O)NCC2CCCCC2)cc1 here?
Answer: active: 11.2 µM

Question: For COc1ccc(-n2c(CN3CCN(c4ccccn4)CC3)nc3ccc([N+](=O)[O-])cc3c2=O)c(OC)c1, which Potency is on record?
Answer: inconclusive: 2.82 µM [inhibitor, partial curve]

Question: Which Potency does the source give for CCN1/C(=C/c2ccc3cc(C)ccc3[n+]2CC)Sc2cc(C)c(C)cc21 here?
Answer: inconclusive: 15.8 µM [inhibitor, single point]

Question: Which “activity, negative = inhibition” value does the source give for O=C(NC(c1ccccc1)c1ccccc1)c1ccc(=O)[nH]n1 here?
Answer: inactive: 0.447%

Question: O=C(N/N=C/c1ccco1)c1cc(-c2ccc(Cl)s2)[nH]n1 was tested. Which Potency did it give?
Answer: inconclusive: 22.4 µM [inhibitor, partial curve, poor fit]

Question: Which Potency does the source give for C=CCn1c(SCc2nc3ccccc3c(=O)[nH]2)nc2scc(C3CC3)c2c1=O here?
Answer: inconclusive: 3.55 µM [inhibitor, partial curve]

Question: O=C(CCNC(=O)c1ccc([N+](=O)[O-])cc1)Oc1ccc(F)c(F)c1 was tested. Which “activity, negative = inhibition” value did it give?
Answer: inactive: 28.5%

Question: How did the Potency turn out when O=C(COC(=O)Cc1ccsc1)Nc1ccc(Cl)cc1F was run?
Answer: inconclusive: 1.58 µM [inhibitor, full curve, poor fit]

Question: For c1ccc(-c2nc3ccccc3[nH]2)nc1, which “activity, negative = inhibition” value is on record?
Answer: inactive: -5.43%

Question: With CC1(C)C(=O)Nc2ccccc2N1C(=O)COC(=O)c1ccc([N+](=O)[O-])o1 as the compound, how does the Potency read?
Answer: inconclusive: 39.8 µM [inhibitor, single point]

Question: COc1ccc2nc(SCC(=O)N3CCN(c4ccc(F)cc4)CC3)c(C#N)cc2c1 was tested. Which “activity, negative = inhibition” value did it give?
Answer: inactive: 0.299%

Question: With O=C(CSc1nc2ccccc2n1Cc1ccccc1Cl)N/N=C/c1ccccc1C(=O)O as the compound, how does the Potency read?
Answer: inconclusive: 17.8 µM [inhibitor, partial curve]

Question: With Cc1cc(C(=O)N/N=C/c2cc(Cl)cc([N+](=O)[O-])c2O)c2ccccc2n1 as the compound, how does the Potency read?
Answer: inconclusive: 22.4 µM [inhibitor, single point]

Question: Which “activity, negative = inhibition” value does the source give for CCOC(=O)c1ccc(Nc2nc(=O)c3cccnc3s2)cc1 here?
Answer: inactive: 3.16%

Question: Which “activity, negative = inhibition” value does the source give for COc1ccc(CN2CCN(C(=O)c3ccco3)CC2)cc1OC here?
Answer: inactive: 5.26%

Question: Which Potency does the source give for CCOC(=O)c1cc2c(ccn2C)n1CC(=O)N1CCC(Cc2ccccc2)CC1 here?
Answer: inconclusive: 31.6 µM [inhibitor, single point]

Question: With O=C(Nc1ncnc2sc3c(c12)CCC3)c1ccco1 as the compound, how does the Potency read?
Answer: inconclusive: 39.8 µM [inhibitor, single point]

Question: COc1ccccc1/C=C/C(=O)Nc1nc(N)n(-c2ccccc2)n1 was tested. Which “activity, negative = inhibition” value did it give?
Answer: inactive: -16.7%

Question: How did the Potency turn out when Oc1ccc(-c2nc3cnccn3c2Nc2ccc3c(c2)OCCO3)cc1 was run?
Answer: inconclusive: 31.6 µM [inhibitor, single point]

Question: With Nc1cc2nsnc2cc1Br as the compound, how does the Potency read?
Answer: active: 15.8 µM

Question: How did the Potency turn out when O=C(CCCN1C(=O)/C(=C/c2ccccc2)SC1=S)Nc1ccc(O)cc1 was run?
Answer: inconclusive: 39.8 µM [inhibitor, single point]

Question: Which “activity, negative = inhibition” value does the source give for CCOC(=O)c1c(C)n(C)c2cc([N+](=O)[O-])c(O)c([N+](=O)[O-])c12 here?
Answer: inactive: -12.2%

Question: CCOC(=O)c1c(CSc2ccc(C)cc2)n(C)c2cc(Br)c(O)c(CN(C)C)c12 was tested. Which Potency did it give?
Answer: inconclusive: 8.91 µM [inhibitor, partial curve]

Question: Cc1ccc(C(=O)NCC(=O)OC(C)C(=O)Nc2ccc(N3CCOCC3)cc2)s1 (stereo unspecified) was tested. Which “activity, negative = inhibition” value did it give?
Answer: inactive: -14.4%

Question: Which Potency does the source give for COCCN(Cc1cc2c(C)cc(C)cc2nc1Cl)C(=O)c1ccccc1F here?
Answer: inconclusive: 10 µM [inhibitor, partial curve]

Question: For COc1ccccc1/C=C/C=N/n1c(-c2ccc(F)cc2)n[nH]c1=S, which “activity, negative = inhibition” value is on record?
Answer: inactive: -14.8%

Question: How did the Potency turn out when Nc1c(O)ccc2c1C(=O)c1ccccc1C2=O was run?
Answer: inconclusive: 28.2 µM [inhibitor, single point]

Question: For CN(C)S(=O)(=O)c1ccc(NC(=O)CN2CCC(Cc3ccccc3)CC2)cc1, which Potency is on record?
Answer: inconclusive: 39.8 µM [inhibitor, single point]

Question: How did the Potency turn out when COc1ccc(-c2c(-c3cc(OC)cc(OC)c3)n(C)c3ccc(-c4ccn[nH]4)cc23)cc1 was run?
Answer: inconclusive: 3.98 µM [inhibitor, full curve, poor fit]

Question: With COc1ccc(-n2c(CNc3ccc(C)cc3)nnc2SCc2ccccc2)cc1 as the compound, how does the Potency read?
Answer: inconclusive: 25.1 µM [inhibitor, partial curve]

Question: Which Potency does the source give for COCCN(CC(=O)Nc1cccc(C)c1C)C(=O)c1oc2ccccc2c1C here?
Answer: inconclusive: 28.2 µM [inhibitor, single point]

Question: With COc1ccc(NC(=O)CN2CCN(CC(=O)Nc3ccccc3Cl)CC2)cc1 as the compound, how does the “activity, negative = inhibition” value read?
Answer: inactive: 2.97%

Question: Cc1ccccc1C(=O)NNC(=O)CCc1ccccc1 was tested. Which Potency did it give?
Answer: inconclusive: 7.94 µM [inhibitor, full curve, poor fit]

Question: How did the Potency turn out when COc1ccccc1NC(=O)COC(=O)c1cnc(C)cn1 was run?
Answer: inconclusive: 39.8 µM [inhibitor, single point]

Question: Which “activity, negative = inhibition” value does the source give for O=[N+]([O-])c1ccc2c(OCc3nnc(-c4ccccc4Br)o3)ncnc2c1 here?
Answer: inactive: -8.44%

Question: With CC(Oc1cccc(Cl)c1)C(=O)Nc1cc(S(=O)(=O)N2CCOCC2)ccc1N1CCCCC1 (stereo unspecified) as the compound, how does the Potency read?
Answer: inconclusive: 6.31 µM [inhibitor, single point]

Question: Cc1nc(C)c(-c2csc(NCc3ccccc3)n2)s1 was tested. Which Potency did it give?
Answer: inconclusive: 31.6 µM [inhibitor, partial curve]

Question: COc1ccccc1NS(=O)(=O)c1cc(NC(=O)CCC2CCCC2)ccc1N1CCOCC1 was tested. Which Potency did it give?
Answer: inconclusive: 1.58 µM [inhibitor, full curve]

Question: With CC(/C=N/n1c(-c2ccccn2)n[nH]c1=S)=C\c1ccccc1 as the compound, how does the Potency read?
Answer: inconclusive: 22.4 µM [inhibitor, partial curve]

Question: Which Potency does the source give for CCO[C@H]1OC(C(=O)N2CCOCC2)=C[C@@H](c2cn(C(C)=O)c3ccccc23)[C@@H]1CCCO here?
Answer: inconclusive: 0.794 µM [inhibitor, single point]

Question: How did the Potency turn out when Cc1cc(C)cc(N(CC(=O)Nc2ccccc2-c2ccccc2)S(=O)(=O)c2ccccc2)c1 was run?
Answer: inconclusive: 0.158 µM [inhibitor, full curve, poor fit]

Question: Which Potency does the source give for O=C(CS(=O)(=O)c1cn(Cc2ccc(Cl)cc2)c2ccccc12)N1CCOCC1 here?
Answer: inconclusive: 39.8 µM [inhibitor, single point]

Question: How did the Potency turn out when CC(C)CC(NC(=O)C(NC(=O)OC(C)(C)C)C(C)C)C(=O)NC(CCC(=O)OCc1ccccc1)C(N)=O (stereo not drawn) (Boc-Val-Leu-Glu(OBn)-NH2; configuration not given here) was run?
Answer: inconclusive: 3.98 µM [inhibitor, single point]

Question: Cc1ccc(C(=O)NC(=S)Nc2ccccc2N2CCCC2)cc1[N+](=O)[O-] was tested. Which Potency did it give?
Answer: inconclusive: 35.5 µM [inhibitor, single point]

Question: With Nc1ccc(O)c2c1C(=O)c1ccccc1C2=O as the compound, how does the activity, negative = inhibition read?
Answer: inconclusive: -99.1% [inhibitor]

Question: With Cc1nc(C)c(C(=O)Nc2nc3c(C)cccc3s2)o1 as the compound, how does the Potency read?
Answer: active: 20 µM

Question: How did the Potency turn out when CC(=O)c1ccc(-c2ccc(/C=C(/Sc3n[nH]c(C)n3)C(=O)O)o2)cc1 was run?
Answer: inconclusive: 3.98 µM [inhibitor, single point]

Question: How did the Potency turn out when COc1ccc(-c2ncccc2OC(=O)C23CC4CC(CC(C4)C2)C3)cc1OC was run?
Answer: inconclusive: 0.708 µM [inhibitor, single point]

Question: Cc1ccc2[nH]c(O)c(N=O)c2c1 was tested. Which Potency did it give?
Answer: inconclusive: 3.55 µM [inhibitor, single point]

Question: For c1ccc(CN2CCC(=NNc3nc4ccccc4[nH]3)CC2)cc1, which Potency is on record?
Answer: inconclusive: 8.91 µM [inhibitor, partial curve]

Question: For COC(=O)[C@H]1[C@H]2C[C@@H]3c4[nH]c5cc(OC)ccc5c4CCN3C[C@H]2C[C@@H](OC(=O)c2cc(OC)c(OC)c(OC)c2)[C@@H]1OC, which Potency is on record?
Answer: inconclusive: 28.2 µM [inhibitor, single point]
